Test results: PubChem BioAssay AID1346428 (National Center for Advancing Translational Sciences (NCATS), 2018)
The whole screen tested about 48,000 compounds, of which about 1,200 (2.5%) were called active. About 2% were inconclusive and are not listed.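 Rule for the calls: active = activation of at least 60% and not above a set upper limit (about 1 call in 100 departs from these limits); inconclusive = activation of 40% to 60%, or above that upper limit; inactive = activation under 40%.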 This is one part of the list.

Biological target: Probable G-protein coupled receptor 32 (Homo sapiens) (UniProt O75388)
Test: qHTS for Agonists of Human Resolvin D1 Receptor DRV1; note: 0% is about no effect
Conditions: CHO-K1 GPR32 beta-arrestin PathHunter luminescence, 90 min; at 76.9 µM; active compounds read high; zero percent set by DMSO-only wells
Outline: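 CHO-K1 cells stably expressing ProLink-tagged GPR32 and Enzyme Activator-tagged beta-arrestin were seeded at 2,500 cells/well overnight, exposed to compounds for 90 min at 37 °C, then read by beta-Gal complementation chemiluminescence after 1 h detection reagent.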

Sequence of UniProt O75388 (O75388 whole entry, looked up): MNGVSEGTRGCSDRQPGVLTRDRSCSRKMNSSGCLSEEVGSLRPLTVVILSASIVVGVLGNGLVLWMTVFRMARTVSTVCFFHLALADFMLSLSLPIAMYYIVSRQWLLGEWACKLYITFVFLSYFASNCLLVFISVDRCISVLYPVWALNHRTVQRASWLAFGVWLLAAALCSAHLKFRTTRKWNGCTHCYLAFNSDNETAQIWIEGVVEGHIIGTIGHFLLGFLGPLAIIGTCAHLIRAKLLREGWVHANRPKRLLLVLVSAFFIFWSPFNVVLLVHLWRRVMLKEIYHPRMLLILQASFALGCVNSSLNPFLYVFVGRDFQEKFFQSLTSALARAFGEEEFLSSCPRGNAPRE

SMILES | activation
CCC1CN(C(=O)Nc2ccccc2C(F)(F)F)c2ccccc2O1 (centres undefined) | inactive: -27%
COc1ccc(/C=C(/C#N)c2nc(-c3cc4ccccc4oc3=O)cs2)cc1 | inactive: 8.78%
CCOc1ccc(NC(=O)CC2C(=O)N(c3ccc(C)cc3)C(=O)N2C2CCCCC2)cc1 (centres undefined) | inactive: -7.32%
O=C(NC1(C(F)(F)F)N=C(c2ccccc2)N(C2CCCCC2)C1=O)c1ccc(F)cc1 (centres undefined) | inactive: 0.854%
Cc1cc(C)n(CCc2nc3c4ccccc4nc(SCc4ccc(Cl)cc4)n3n2)n1 | inactive: -16.8%
C=CCSCC1Nc2cc(Cl)c(S(N)(=O)=O)cc2S(=O)(=O)N1 (centres undefined) | inactive: -41.6%
Cn1ccc2cc(S(=O)(=O)N3CCCC(C(=O)NCc4ccc(F)cc4)C3)ccc21 (centres undefined) | inactive: -4.32%
COC(=O)c1ccc(C2C=C(c3ccc(Cl)cc3)Nc3nc4ccccc4n32)cc1 (centres undefined) | inactive: -8.11%
Cc1cc(O)c2c(O)c3c(O)cccc3cc2c1 | active: 108%
CC(=O)Nc1ccc(NC(=O)c2cc3c(=O)n(Cc4cccnc4)ccc3nc2C)cc1 | inactive: -8.54%
N#Cc1cccc(NC(=O)C2CCN(c3cnccn3)CC2)c1 | inactive: -6.89%
O=C(CSc1nc(-c2ccc(F)cc2)nc2c1Cc1ccccc1O2)Nc1cccc(C(=O)O)c1 | inactive: -0.0865%
CCOc1ccccc1-c1noc(CCCC(=O)Nc2cccc(C(F)(F)F)c2)n1 | inactive: 10.8%
CC1CCCCN1C(=O)c1ccc2c(c1)N(Cc1cccc(Cl)c1)C(=O)c1ccccc1S2=O (centres undefined) | inactive: -21.6%
CCCCNC(=O)c1cccc(-n2cnc3cccnc32)c1C | inactive: 2.05%
Cc1ccc(-n2nc(C(C)(C)C)cc2NC(=O)Nc2ccc(OCCN3CCOCC3)c3ccccc23)cc1 | inactive: 22%
Cc1cc(N(C)Cc2ccccc2)n2nc(-c3ccc(C(C)(C)C)cc3)nc2n1 | inactive: -40.1%
CCOc1ccc(-c2c(C)nn3c(C)c(C(=O)NCc4ccc(Cl)cc4)cnc23)cc1OCC | inactive: -0.749%
CCc1ccc(-n2nc3cc(C)c(NC(=O)c4ccccc4C)cc3n2)cc1 | inactive: -45.1%
CC1CCN(c2nc3c(-c4cccc(Br)c4)nnn3c3ccccc23)CC1 | inactive: -15.2%
COc1ccc(OCCn2nnc3sc4c(c3c2=O)CCC(C(C)(C)C)C4)cc1 (centres undefined) | inactive: -1.56%
COc1ccc(CNC(=O)CCc2c(C)nn(-c3ccc(N4CCCCC4)nn3)c2C)cc1 | inactive: -16.8%
CCCCCn1c(=O)[nH]c2cc(C(=O)NCCN(C)CCCC)ccc2c1=O | inactive: 8.55%
CCC(NC(=O)Nc1cc(Cl)ccc1OC)c1c(-n2cccc2)sc2c1CCN(C)C2 (centres undefined) | inactive: -31.4%
N=c1n(CCO)c2ccccc2n1Cc1ccccc1F | inactive: -14.7%
COc1ccc(CCNC(=O)c2cc(=O)c3cc(C)cc(C)c3o2)cc1OC | inactive: 7.8%
O=C(CSc1c2c(nc3ccc(Cl)cc13)CCCC2)NCc1ccccc1Cl | inactive: -18.6%

SMILES | activation
O=C(OCc1ccco1)c1ccc2c(c1)N(Cc1cccc(F)c1)C(=O)c1ccccc1S2 | inactive: -7.55%
CCC(Sc1nc2ccccc2c2nc(CCn3c(C)nc4ccccc43)nn12)C(=O)Nc1ccc(F)cc1 (centres undefined) | inactive: -5.33%
Cc1ccc(-c2cc(C(=O)OCC(=O)c3ccccc3)c3cccc(Cl)c3n2)cc1 | inactive: 8.06%
CCOc1ccccc1NC(=O)CC(c1ccc(F)cc1)N1Cc2ccccc2C1=O (centres undefined) | inactive: -19.3%
COc1ccc(Br)c(C(=O)Nc2cc3c(cc2N2CCCC2)n(C)c(=O)c(=O)n3C)c1 | inactive: -3.8%
O=C(Nc1ccc(F)cc1)c1ccc(Cn2nc(N3CCN(c4ccccc4)CC3)ccc2=O)o1 | inactive: -2%
COC(=O)c1ccc(NC(=O)CCc2c(C)nn(-c3ccc(N4CCOCC4)nn3)c2C)cc1 | inactive: 0.748%
COc1ccccc1-c1nc2c(c(SCc3ccc(F)cc3Cl)n1)Cc1c(CO)cnc(C)c1O2 | inactive: 16%
CCOC(=O)c1c(C)[nH]c(C)c1S(=O)(=O)N1CCC(C(=O)N2CCN(c3cccc(C)c3C)CC2)CC1 | inactive: 14.2%
COc1ccc(CCNc2nc(-c3ccc(Cl)cc3)cc(C(F)(F)F)n2)cc1OC | inactive: -1.45%
COc1cccc(-c2cc(C(=O)N3CCN(c4ccccc4OC)CC3)no2)c1 | inactive: -21.2%
COc1ccc(Cl)cc1NC(=O)Cc1coc2c(C)c(C)ccc12 | inactive: -7.29%
CCc1ccc(NC(=O)c2sc3nc4c(cc3c2N)CN(CC)CC4)cc1 | inactive: -4.31%
Cc1coc2cc3oc(=O)c(CC(=O)N4CCCCC4)c(C)c3cc12 | inactive: -7.09%
Cc1cccc(CSc2nc3cc(C(=O)NC4CCCC4)ccc3c(=O)n2Cc2ccccc2)c1 | inactive: -14.3%
NC(=O)c1cccc(N)c1 | inactive: -4.09%
CCc1cccc(NC(=O)Cn2c(=O)c(C(F)(F)F)nc3ccccc32)c1 | inactive: 0.499%
Cc1ccc(CNS(=O)(=O)c2ccc(-c3cnc(C4CC4)o3)cc2)cc1 | inactive: -10.2%
CCC(CC)C(=O)Nc1c(C(=O)N2CCN(c3ccccc3)CC2)oc2ccccc12 | inactive: -30.7%
CCCN(CCC)CC(O)Cn1cc(/C=C/C(=O)c2ccc(OC)cc2)c2ccccc21 (centres undefined) | inactive: -4.55%
Cc1cc(C)c2c(=O)cc(C(=O)Nc3nc4ccc(F)cc4s3)oc2c1 | inactive: 4.58%
CCCCN(CC)CCCNC(=O)c1cc2c(-c3ccc(OC)c(OC)c3)nn(C)c2s1 | inactive: -6.73%
CCN(CC)CCNC(=O)Cn1ncc2c([nH]c3ccccc32)c1=O | inactive: -5.24%
O=C1c2oc3ccc(F)cc3c(=O)c2C(c2cccc([N+](=O)[O-])c2)N1CCCN1CCOCC1 (centres undefined) | inactive: -7.87%
Cc1ccc(NC(=O)c2cccn2-c2nnc(N3CCCCC3)s2)cc1Cl | inactive: -25.7%
Cn1nc(C(=O)N2CCN(c3ccccc3F)CC2)c2c1-c1ccccc1SC2 | inactive: -16.4%
COCCNC(=O)C1CCCN(S(=O)(=O)c2ccc3c(ccn3C)c2)C1 (centres undefined) | inactive: 0.419%
